SMILES strings stand for the structures. In all, about 48,000 compounds went through this assay and about 450 (0.94%) were called active. Roughly 19% stayed inconclusive and do not appear here. The call rests on the fitted dose curve; in most records, active means well fitted inhibition curve with a large enough effect; inconclusive means small, poorly fitted or top-dose-only effect; inactive means no such curve, though single readings can be large or run the other way. The list shows a part of the results.

A short description of this experiment: Primary qHTS for Identification of Small Molecule Inhibitors of Huntingtin Promoter Activity. Further: nearly all actives have a fitted effect of over 50% in size. The settings on record: HEK293 HTT promoter firefly luciferase reporter (activity 0% = vehicle and -100% = no light), 24 h; series mostly up to 57.5 µM; activity change, negative = inhibition: at the top concentration. The method in brief:
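Quantitative HTS used concentration series of up to 57.5 uM final on HEK293 luciferase reporter cells, 24 h at 37 degrees C. Readout was Dual-Glo firefly luminescence.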
Background: qHTS replaces the single test concentration by a dilution series.
In the case of `Cc1ccc(NC(=O)C2CCN(S(=O)(=O)c3cccc4nonc34)CC2)c(Cl)c1`, the “activity change, negative = inhibition” value is inactive: 1.26%.

With `CCOC(=O)c1c(C)[nH]c(C)c1S(=O)(=O)N1CCC(C(=O)NCc2cccc(C)c2)CC1`, the “activity change, negative = inhibition” value is inactive: -19.7%. Regarding `O=C(Nc1ccc(-c2nc3ccccc3s2)c(O)c1)c1ccc(Br)cc1`, the “activity change, negative = inhibition” value was inactive: 12.3%. On to `Cc1cccc(NC(=O)CSc2nnc3[nH]c(=O)cc(C)n23)c1C`, for which the “activity change, negative = inhibition” value was inactive: -4.2%.

Turning to `COc1ccc(N2CCN(C(=O)c3cnc(SC)nc3C)CC2)cc1`, the “activity change, negative = inhibition” value is inactive: 12.2%.

`COc1ccc(-c2cc3c(=O)n(CC(=O)Nc4ccc(Br)c(C)c4)ccn3n2)cc1OC`: the “activity change, negative = inhibition” value is inactive: -0.787%.

For `O=C(CCn1c(=O)c2cccn2c2cccnc21)Nc1ccccc1Br`, the “activity change, negative = inhibition” value was inactive: -3.42%. In the case of `Cc1ccc(S(=O)(=O)c2nnn3c2nc(N2CCN(c4ccccc4F)CC2)c2cc(Cl)ccc23)cc1C`, the “activity change, negative = inhibition” value is inactive: -11.1%.

Turning to `CC(=O)N1c2c(cc(Br)cc2S(=O)(=O)N2CCN(c3cc(C)ccc3C)CC2)CC1C` (stereo not given), the “activity change, negative = inhibition” value is inactive: -11.7%. Turning to `OC[C@H](Cc1ccccc1)Nc1nc(Oc2ccc3c(c2)CCC3)nc2c1ncn2Cc1ccc(-c2ccccc2)cc1`, the “activity change, negative = inhibition” value is inactive: -9.29%. In the case of `Cc1ccc(S(=O)(=O)c2nnn3c2nc(N2CCCC2)c2sccc23)cc1C`, the “activity change, negative = inhibition” value was inactive: -11.3%. As to `CC1=C(C#N)C(NC(=O)c2ccccc2Cl)(C(F)(F)F)C(=O)N1` (stereo not given), the “activity change, negative = inhibition” value is inactive: 0.489%. Take `COc1ccc(OC)c(NC(=O)C2=C(C)C(=O)OC23CCCCCC3)c1`: the “activity change, negative = inhibition” value was inactive: -6.6%.

For `CCN(CC)CCCNC(=O)c1cnc(SC)nc1-c1ccccc1`, the “activity change, negative = inhibition” value is inactive: -2.2%.

Consider `CCN(CC)CCCNC(=O)c1cn(C)c2ccc(S(=O)(=O)N(C)C3CCCCC3)cc2c1=O`, for which the “activity change, negative = inhibition” value is inactive: -5.72%. `CCOCCc1nn2c(=O)cc(COC(=O)CNC(=O)c3cccc(C)c3)nc2s1`: the “activity change, negative = inhibition” value is inactive: -3.99%. Consider `Cc1ccc2c(=O)cc(C(=O)Nc3nc4ccc(Cl)cc4s3)oc2c1C`, for which the “activity change, negative = inhibition” value was inactive: -7.67%. For `COc1cccc(-c2ncnn2-c2sc3c(c2C#N)CCCCC3)c1OC` the value was inactive: 13.3%; for `O=C(COc1ccc(Cl)cc1)Nc1nnc(S(=O)(=O)N2CCc3ccccc32)s1`, inactive: -16.7%.

`COc1ccc(CNc2nc3c(-c4cccc(C)c4)nnn3c3ccccc23)cc1`: the “activity change, negative = inhibition” value was inactive: -10.9%. As for `CCOc1ccc(NC(=O)c2cnc(N3CCCC3)nc2C)cc1`, the “activity change, negative = inhibition” value was inactive: -11.5%. As to `Cc1nn(CC(=O)N2CCC(C)CC2)c(=O)c2cc3sccc3n12`, the “activity change, negative = inhibition” value was inactive: -0.621%. Regarding `CCOc1ccc(CCNC(=O)c2cn(C)c3ccc(S(=O)(=O)N4CCCCCC4)cc3c2=O)cc1OCC`, the “activity change, negative = inhibition” value is inactive: -11.1%. Take `CCOC(=O)c1c(C)[nH]c(C)c1S(=O)(=O)N(C)CC(=O)N1CCN(c2ccccc2)CC1`: the “activity change, negative = inhibition” value is inactive: -14.7%. With `COc1ccccc1NC(=O)c1c(NCc2ccc(OC)c(OC)c2OC)sc2c1CCC2`, the “activity change, negative = inhibition” value was inactive: -25.3%. For `CC(C)c1ccc(NC(=O)Cn2cc(S(=O)(=O)N3CCN(c4ccccc4F)CC3)c3ccccc3c2=O)cc1` the value was inactive: -4.07%; for `OC(Cn1cncn1)(Cn1cncn1)c1ccc(F)cc1F`, “inactive”; for `Cc1cc(Cl)ccc1OCc1nc(-c2ccc(-n3cccc3)cc2)no1`, inactive: -14.8% [at 11.5 µM].

On to `CCCCOC(=O)c1ccc(NC(=O)c2cc3c(=O)n4cccc(C)c4nc3s2)cc1`, for which the “activity change, negative = inhibition” value is inactive: 19.4%. Regarding `CCCNC(=O)CCc1nnc2ccc(N3CCN(c4cccc(OC)c4)CC3)nn12`, the “activity change, negative = inhibition” value was inactive: 6.91%. On to `CCCCN(C)CCNC(=O)c1c2c(nc3ccccc13)C(=O)N(C1CCCCC1)C2`, for which the “activity change, negative = inhibition” value is inactive: -8.17%. In the case of `CC(C)(C)OC(=O)N1CCC(c2c(C(=O)NCCN3CCc4ccccc4C3)cnn2-c2ccc(F)cc2F)CC1` it was inactive: -9.55%; in that of `Cc1ccc(CN2CCC(CNC(=O)Nc3ccc(Cl)cc3)C2)cc1` (stereo not given), inactive: -25.2%. Consider `Cc1ccc(NC(=O)CCn2c(=O)c3cccn3c3ccccc32)cc1C`, for which the “activity change, negative = inhibition” value was inactive: -15.6%. In the case of `Cc1ccc(-n2c(=O)c3cccnc3n2CC(=O)Nc2ccc(Br)cc2)cc1C` it was inactive: -10.2%; in that of `CCC(=O)N1CCc2cc(Br)cc(S(=O)(=O)CCC(=O)NCCc3cccc(C)c3)c21`, inactive: -2.25%.

`Cn1ncc2c(N3CCN(c4cccc(Cl)c4)CC3)ncnc21`: the “activity change, negative = inhibition” value was inactive: -20.5%. For `Cc1cc(C)cc(NC(=O)C(Cc2ccccc2)NS(=O)(=O)c2ccc3c(c2)c(=O)n(C)c(=O)n3C)c1` (stereo not given), the “activity change, negative = inhibition” value is inactive: -31.6%. `COc1ccc(C)cc1NC(=O)CCS(=O)(=O)c1cc2c3c(c1)CCN3C(=O)CC2`: the “activity change, negative = inhibition” value is inactive: -6.39%. With `CCOc1ccc(Oc2nc(NCC(C)C)nc(N3CCOCC3)n2)nn1`, the “activity change, negative = inhibition” value was inactive: 16.2%. Consider `CC(=O)N1CCc2cc(CNC(=O)Cc3ccc(F)cc3)ccc21`, for which the “activity change, negative = inhibition” value is inactive: 62.6%. Consider `COc1cccc(CNC(=O)C(=O)NCC(c2ccco2)S(=O)(=O)c2cccs2)c1` (stereo not given), for which the “activity change, negative = inhibition” value is inactive: -26.2%. In the case of `CC(C)(C)C(=O)Cn1c(=O)n(-c2ccc(Cl)cc2)c(=O)c2c3c(sc21)CCCC3` it was inactive: -6.59%; in that of `O=C(/C=C/c1ccccc1)N1CCN(Cc2cc(=O)n3nc(-c4ccccc4F)sc3n2)CC1`, inactive: -11.1%. In the case of `C[C@@H](NCCCc1cccc(C(F)(F)F)c1)c1cccc2ccccc12` it was inactive: -9.01%. `CC(=O)Nc1cccc(-n2c(=O)n(C3CC3)c(=O)c3c(Nc4ccc(I)cc4F)n(C)c(=O)c(C)c32)c1`: the “activity change, negative = inhibition” value was inactive: 9.87%. With `COc1ccc(N2CC(NC(=O)/C=C\c3ccccc3)CC2=O)cc1` (stereo not given), the “activity change, negative = inhibition” value is inactive: 5.93%. `O=C(Cn1c(SCCOc2ccccc2)nc2ccccc21)N1CCOCC1`: the “activity change, negative = inhibition” value is inactive: -10.8%. For the compound `COc1ccc(Cl)cc1N(C)C(=O)c1ccc2c(=O)n3c(nc2c1)CCCCC3`, the “activity change, negative = inhibition” value was inactive: -18.5%. In the case of `COc1ccc(NC(=O)Cn2c(=O)n(CCC(=O)NCc3ccccc3OC)c(=O)c3ccccc32)cc1Cl` it was inactive: -10.4%; in that of `Cc1ccc(Cn2ccn(Cc3ccccc3F)c(=O)c2=O)cc1`, inactive: -9.65%. In the case of `Cc1nc2c(-c3ccccc3)c(C)nn2c(C)c1CCC(=O)N1CCN(c2ccc(F)cc2)CC1` it was inactive: -26.4%; in that of `Cc1c(Cl)cccc1NC(=O)COCc1cc(-c2ccc3c(c2)OCO3)on1`, inactive: -5.62%. In the case of `CSc1ccc(CCNC(=O)c2ccc(-c3nc(COc4ccccc4)c(C)o3)cc2)cc1`, the “activity change, negative = inhibition” value was inactive: -7.69%.

In the case of `Cc1cccc(N2CCN(CCCNc3ncnc4onc(-c5ccc(Cl)cc5)c34)CC2C)c1` (stereo not given), the “activity change, negative = inhibition” value is inactive: -11.1%. On to `COc1ccc(CCNC(=O)CCn2c(=O)c3ccccc3n(Cc3cc(C)ccc3C)c2=O)cc1OC`, for which the “activity change, negative = inhibition” value was inactive: -11.4%.

Consider `Cc1ccc2nc(-c3ccc(Cl)c(NC(=O)COc4cccc(C)c4C)c3)oc2c1`, for which the “activity change, negative = inhibition” value is inactive: -10.9%. In the case of `Cc1cccc(NC(=O)c2ccc3snnc3c2)c1` it was inactive: 48%.

As to `Cc1cc2c(cc1NS(=O)(=O)c1ccc(F)cc1)n(C)c(=O)c(=O)n2C`, the “activity change, negative = inhibition” value is inactive: 1.57%. With `CCCc1cc(=O)[nH]c2nnc(SC(C)CC)n12` (stereo not given), the “activity change, negative = inhibition” value is inactive: -11.4%.

Source of the values: PubChem BioAssay AID1508623 (National Center for Advancing Translational Sciences (NCATS), 2021).
